According to US20050147610A1 (AbbVie / Abbott, published 2005):

Tests used:
[1] = target: T1, NEM-huIL-18 (recombinant mature human IL-18 treated with N-ethyl maleiamide) (human, UniProt Q14116 37-193, cysteines protected with N-ethyl maleiamide (NEM)); test: Biacore, NEM-cys protected rhuIL-18
T1 construct: monomeric; also called NEM-IL-18; NEM-rhuIL-18

[2] = target: T2, (4C/A)-huIL-18 (4C/A mutant of mature human IL-18) (human, UniProt Q14116 37-193); test: BIACORE
T2 construct: All four Cys of mature IL-18 are changed to Ala; also called 4C/A mutant of IL-18; Cysteine > Alanine mutant BV derived rec. human IL-18

[3] = target: T1, NEM-huIL-18 (recombinant mature human …); test: cell-based or functional assay
[4] = target: natural human IL-18 (endogenous, human whole blood) (human, UniProt Q14116 37-193); test: cell-based or functional assay
[5] = target: 125I labeled rhu-IL-18 (human, UniProt Q14116 37-193, NEM-treated cysteines; 125I label on lysine residues); test: RBA: inhibition of 125I-rhu-IL-18 binding to IL-18Rαβ on KG-1 cells

B1: 2.5(E)wtg1 (antibody, human IgG1, kappa)
heavy: ZVQLVQSGTEVKKPGESLKISCKGSGYTVTSYWIGWVRQMPGKGLEWMGFIYPGDSETRYSPTFQGQVTISADKSFNTAFLQWSSLKASDTAMYYCARVGSGWYPYTFDIWGQGTMVTVSS[letters of human IgG1 constant region not shown]
light: EIVMTQSPATLSVSPGERATLSCRASESISSNLAWYQQKPGQAPRLFIYTASTRATDIPARFSGSGSGTEFTLTISSLQSEDFAVYYCQQYNNWPSITFGQGTRLEIKRTVAAPSVFIFPPSDEQLKSGTASVVCLLNNFYPREAKVQWKVDNALQSGNSQESVTEQDSKDSTYSLSSTLTLSKADYEKHKVYACEVTHQGLSSPVTKSFNRGEC
notes: Human IgG1 wild type/kappa
[1]
  Kd: 0.4 nM
[2]
  Kd: 0.17 nM
  koff: 4.78e-05 s⁻¹
[3]
  KG-1 (IC50, nM): 0.3 nM
[4]
  WBA (IC50, nM): 3 nM
[5]
  IC50: 2.38 nM
